We go through 53 compounds from ChEMBL document CHEMBL4888484, “Replenishing the malaria drug discovery pipeline: Screening and hit evaluation of the MMV Hit Generation Library 1 (HGL1) against asexual blood stage Plasmodium falciparum ,using a nano luciferase reporter read-out” (2022).

What is called % Inhibition is the relative decrease from the control value, in per cent.

SMILES strings stand for the structures. The campaign covered roughly 150,000 compounds. About 540 (0.36%) showed an effect of 50% or more. This is one part of the list.

This assay deals with Plasmodium falciparum. The assay is described as follows: Primary screen in NF54 nanoGlo assay, in single point, at 2uM, 72h; a lower Z score goes with more inhibition. It counts as functional, Erythrocyte. To be noted: timepoint 72 hour.
Take `Cc1nc(CNc2nc(-c3ccco3)nc3c2CCN(C)CC3)cs1`: the “% Inhibition” value is listed as 6% and the Z score is reported as -0.85.
Consider `CCOc1ccccc1CNC(=O)c1cc(C)nc2c1c(=O)n(C)c(=O)n2C`, for which the “% Inhibition” value is -3% and the Z score came out at 0.46.
Regarding `COc1cc(OC)c(Nc2c(C(=O)N3CCCC3)cnc3nc(C)ccc23)cc1Cl`, the “% Inhibition” value is given as -5% and the Z score is 0.72.
For the compound `O=C(C(=O)N1CCCCC1)c1ccc(Br)cc1`, the “% Inhibition” value was 16% and the Z score is given as -2.22.
Turning to `O=C(NC1CC1)c1ccc(OC[C@H]2CCCN2C(=O)c2ccccc2F)cc1`, the “% Inhibition” value is on record as -14% and the Z score was 2.57.
For `CNc1nc(C)c(C(=O)N(C)Cc2ccncc2C)s1` the same measures were -2% and 0.32.
`Cc1nn(CCCNS(=O)(=O)c2cnn(C)c2C)c(C)c1Br`: the “% Inhibition” value was found to be 3% and the Z score is on record as -0.35.
For `O=C(Nc1cc(C(F)(F)F)ccc1O)c1c[nH]nc1C1CC1`, the “% Inhibition” value is given as 3% and the Z score is -0.54.
Regarding `O=C1CCN(CC(=O)N2CC=C(c3ccccc3F)C2)C(=O)N1`, the “% Inhibition” value is reported as -8% and the Z score is reported as 1.24.
On the same counts, the results for `CC(C)CN1CCN(CCCN2C(=O)NC(C)(C)C2=O)CC1` are 29% and -3.93.
Turning to `O=C(COC1CCCCC1)Nc1ccccc1C(=O)NC1CC1`, the “% Inhibition” value is -8% and the Z score is recorded as 1.49.
In the case of `COCCCCC(=O)N(Cc1ccccc1)c1ccc(C#N)cn1`, the “% Inhibition” value was -5% and the Z score came out at 0.77.
Consider `CC(C)NC(=O)c1nsc(C(=O)NC2CC2)c1N`, for which the “% Inhibition” value is -12% and the Z score is recorded as 1.19.
Regarding `O=C(CCCn1ccnc1)N[C@H]1COCC[C@@H]1Oc1ccc(CO)cc1`, the “% Inhibition” value is -4% and the Z score is on record as 0.8.
`Cc1cc(N2CC(n3nc(C)cc3C)C2)n2ncnc2n1`: the “% Inhibition” value is 6% and the Z score is -0.82.
On to `C[C@H]1CCCN(C(=O)CN2CCN(c3ccc(F)c(F)c3)C2=O)C1`, for which the “% Inhibition” value is 2% and the Z score was -0.25.
For `Cc1cc(C)c(N2CC[C@H](N3CCC4(C3)OCCO4)C2=O)c(C)c1` the same measures were -10% and 1.5.
Take `CC(C)(CN1C[C@H](C(=O)O)[C@@H](c2ccncc2)C1)N1CCCCC1`: the “% Inhibition” value is recorded as -6% and the Z score came out at 0.98.
Take `CC(=O)N1N=C(COc2ccc(Cl)cc2Cl)O[C@@]1(C)c1ccccc1`: the “% Inhibition” value is given as -12% and the Z score is listed as 1.55.
Consider `O=C(Cn1ncccc1=O)NCc1nc(-c2ccc[nH]c2=O)no1`, for which the “% Inhibition” value is -9% and the Z score came to 1.46.
On the same counts, the results for `Cc1cc(NC(=O)N2CCO[C@H]3CN(C(=O)OC(C)(C)C)C[C@H]32)no1` are 6% and -0.91.
Take `N#Cc1ccccc1OCCN1CC(n2cccn2)C1`: the “% Inhibition” value is -7% and the Z score stood at 0.93.
As for `O=C(c1ccns1)N(Cc1ccccc1)CC1(O)CCCC1`, the “% Inhibition” value came to 0% and the Z score was determined as 0.07.
Consider `O=C(c1ccc(F)cc1)N1CCC(n2cc(-c3nc(C4CC4)no3)nn2)CC1`, for which the “% Inhibition” value is given as -20% and the Z score was 2.31.
As for `CCc1nc(COC(=O)[C@@H]2CCCN2C(=O)OC)cs1`, the “% Inhibition” value is 13% and the Z score is on record as -1.18.
Turning to `Cc1cc(C(=O)N2CCn3nc(CCC(=O)N4CCCC4)cc3C2)[nH]n1`, the “% Inhibition” value is listed as -4% and the Z score turned out to be 0.62.
For `CC(C)CNC(=O)c1coc(COc2ccc3ncccc3c2)n1` the same measures were -8% and 1.11.
`C[C@@H](CNc1nc(C2CC2)no1)Cn1cccn1`: the “% Inhibition” value is -9% and the Z score came out at 0.81.
Turning to `COc1ccc2c(Cl)c(C(=O)Nc3nc(-c4ccccc4)cs3)sc2c1Cl`, the “% Inhibition” value was 7% and the Z score is given as -0.72.
As for `CO[C@H]1C[C@@H](CO)N(C(=O)c2onc3c2CCCC3)C1`, the “% Inhibition” value is given as -12% and the Z score came out at 2.37.
With `COc1ccc(CCc2nc(-c3ccc4c(c3)[nH]c(=O)n4C(C)C)no2)cc1`, the “% Inhibition” value is recorded as -8% and the Z score was 1.09.
On to `O=C1NCCN(C(=O)CCN2CCCC2=O)[C@H]1Cc1ccccc1`, for which the “% Inhibition” value is -8% and the Z score is listed as 1.74.
On the same counts, the results for `CCc1nn(C)c(NC(=O)[C@H]2CCN(CCOC)C2)c1C` are 4% and -0.69.
As for `COc1ccccc1NC(=O)C(=O)N1CCC[C@H](c2nc(C)no2)C1`, the “% Inhibition” value was -2% and the Z score is reported as 0.21.
For `CCN1C(=O)[C@@H]2CC3(CCN(C(=O)Nc4ccc(C)c(C)c4)CC3)CN2C1=O` the same measures were 7% and -0.92.
In the case of `CCCCn1nc(-c2ccc(C(N)=O)cc2)nc1CN1CCOC1=O`, the “% Inhibition” value is given as -13% and the Z score was 2.21.
On to `Cc1c(C(=O)N2CC[C@H](n3cc(Cl)cn3)C2)nnn1Cc1ccc(F)cc1`, for which the “% Inhibition” value is reported as -9% and the Z score came out at 1.45.
For `O=C(Cc1noc(C2(c3cccc(F)c3)CC2)n1)NC1CCCC1`, the “% Inhibition” value is -11% and the Z score is on record as 1.25.
As for `Cc1ccc2cc(S(=O)(=O)N3CCOCC3)ccc2c1`, the “% Inhibition” value is -5% and the Z score came out at 0.63.
Take `CN(C)CCNc1nc(S(=O)(=O)c2ccccc2)c(Cl)s1`: the “% Inhibition” value was found to be 3% and the Z score is -0.41.
For the compound `O=C(NCc1ccc(Cn2cccn2)cc1)c1nccnc1-c1nc2ccccc2s1`, the “% Inhibition” value was 2% and the Z score is -0.3.
For `c1cc(CNc2ccc3c(c2)OCO3)ccn1` the same measures were -9% and 1.7.
`CCn1cnnc1CNC(=O)N1CC(C)OCC1C` (stereo unspecified): the “% Inhibition” value was -4% and the Z score stood at 0.44.
`CCC(=O)N1C[C@@H]2NC(=O)CN(C)C(=O)c3ccc(C)c(c3)Oc3cccc(c3)CO[C@H]2C1`: the “% Inhibition” value was -3% and the Z score is listed as 0.37.
For `O=C(Cn1ccnc1)N1CCN(C(=O)N2CCN(Cc3ccccc3)CC2)CC1` the same measures were -14% and 2.78.
As for `COc1cc(OC)c(OC)cc1CN1CCC2(CCC(=O)N(C)CC2)CC1`, the “% Inhibition” value is -1% and the Z score came out at 0.09.
For the compound `COCCOc1ccc(Br)cc1S(=O)(=O)Nc1nccn(C)c1=O`, the “% Inhibition” value is on record as -9% and the Z score was 1.35.
In the case of `COc1c(F)cc(-c2cc(-c3sc(N)nc3C)nc(N)c2C#N)cc1F`, the “% Inhibition” value is -5% and the Z score is listed as 0.89.
Take `CC(C)(Cc1nc([C@H]2CCS(=O)(=O)C2)no1)C(F)(F)F`: the “% Inhibition” value was -6% and the Z score turned out to be 0.83.
Consider `CC(C)C[C@H](CO)NC(=O)C[C@@H]1c2nc(-c3cccnc3)sc2C[C@@H]2[C@](C)(CO)[C@H](O)CC[C@]21C`, for which the “% Inhibition” value was 6% and the Z score is on record as -1.
On the same counts, the results for `COc1ccc(C2CC(Cn3cc(C(C)=O)c(=O)[nH]c3=O)ON2C)cc1` (stereo unspecified) are -5% and 0.73.
On to `Cc1csc([C@@H](C#N)C(=O)c2cnn(CC(C)C)c2C2CC2)n1`, for which the “% Inhibition” value was 4% and the Z score was -0.76.
Regarding `COc1ccc(-n2ncc3c(N4CCN(C(=O)c5ccc(Cl)cc5)CC4)nc(C4CC4)nc32)cc1`, the “% Inhibition” value is reported as -19% and the Z score is on record as 2.
